# Results published in the supplement of paper PMC8728848.
# The other results are listed elsewhere or left out.
# B1: PX14343H-pdi-506-26-506 (Parabacteroides distasonis) (protein)
# chain: QPTGTMTTDSKLTSKESALALTNSAYLKNTVFNKMTPGWGCNTILLLEYMTGKATSENSQSNYKDFQDLLVSDRSLYIEDWWQDCYAGIANCNLALQKLGEFENLDASLVNGYMAEVKFMRALYYFYLVRIFGDVPKITTVQSELGELQVSRAPVKEIYDEIIIPDLLEAEQSDLAFSDHTGRVSMGAVKALLADVYLTYAGYPLQGGKSYYAESAKRSLEVIKSNEYTLFTDYESLRLPSQNNKGEFIYQVQFSLNKRHNESVRIFLPSRSGISAYDLEYGSLIPTKEFVESFEKGDKRTEEKQYFFTNYKGHPSKFSPGAAELEFMDLNGYYIYKFFDQVAVDNTAKSDLNWSVYRYTDVLLMYAEAQVNADGTPNQQSIDIVNQIRGRAGLAPFKQTNASAFLEEVWDQRYFDLCYENKMWFDMLRTRKIRDDKSGEYVDFIGYKTNWGKVYTETQLLFPIPLSERQANPNLTQNQGY
# How the values were obtained:
# Experiment in all cases: glycan array binding signal (z-score within array); higher = stronger binding
# Settings in all cases: glycan notation: IUPAC condensed, linker removed
# [1] = molecular target: Gal(b1-3)GlcNAc(b1-6)[Gal(b1-3)]GalNAc
# How it was run: (§1)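 Columns mapping to the same glycan were averaged after glycan names were converted to IUPAC-condensed notation. The data come from 3228 arrays in the Consortium for Functional Glycomics database, limited to those with an available protein sequence. Binding is reported as a within-array Z-score averaged across arrays of one protein sequence and across linkers.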
# [2] = molecular target: Gal(b1-3)GlcNAc6S
# How it was run: as §1
# [3] = molecular target: Gal(b1-3)[Fuc(a1-4)]GlcNAc
# How it was run: as §1
# [4] = molecular target: Gal(b1-3)[Fuc(a1-4)]GlcNAc(b1-2)Man
# How it was run: as §1
# [5] = molecular target: Gal(b1-3)[Fuc(a1-4)]GlcNAc(b1-2)Man(a1-3)[Gal(b1-3)[Fuc(a1-4)]GlcNAc(b1-2)Man(a1-6)]Man(b1-4)GlcNAc(b1-4)[Fuc(a1-6)]GlcNAc
# How it was run: as §1
# [6] = molecular target: Gal(b1-3)[Fuc(a1-4)]GlcNAc(b1-3)Gal(b1-3)[Fuc(a1-4)]GlcNAc
# How it was run: as §1
# [7] = molecular target: Gal(b1-3)[Fuc(a1-4)]GlcNAc(b1-3)Gal(b1-4)[Fuc(a1-3)]GlcNAc
# How it was run: as §1
# [8] = molecular target: Gal(b1-3)[Fuc(a1-4)]GlcNAc(b1-6)GalNAc
# How it was run: as §1
# [9] = molecular target: Gal(b1-3)[GlcNAc(b1-6)]GalNAc
# How it was run: as §1
# [10] = molecular target: Gal(b1-3)[Neu5Ac(a2-6)]GalNAc
# How it was run: as §1
# [11] = molecular target: Gal(b1-3)[Neu5Ac(a2-6)]GlcNAc(b1-4)Gal(b1-4)Glc
# How it was run: as §1
# [12] = molecular target: Gal(b1-3)[Neu5Ac(b2-6)]GalNAc
# How it was run: as §1
# [13] = molecular target: Gal(b1-4)Gal
# How it was run: as §1
# [14] = molecular target: Gal(b1-4)GalNAc(a1-3)[Fuc(a1-2)]Gal(b1-4)GlcNAc
# How it was run: as §1
# [15] = molecular target: Gal(b1-4)GalNAc(b1-3)[Fuc(a1-2)]Gal(b1-4)GlcNAc
# How it was run: as §1
# [16] = molecular target: Gal(b1-4)Glc
# How it was run: as §1
# [17] = molecular target: Gal(b1-4)Glc6S
# How it was run: as §1
# [18] = molecular target: Gal(b1-4)GlcNAc
# How it was run: as §1
# [19] = molecular target: Gal(b1-4)GlcNAc(a1-6)Gal(b1-4)GlcNAc
# How it was run: as §1
# [20] = molecular target: Gal(b1-4)GlcNAc(b1-2)Man
# How it was run: as §1
# [21] = molecular target: Gal(b1-4)GlcNAc(b1-2)Man(a1-3)Man(b1-4)GlcNAc(b1-4)GlcNAc
# How it was run: as §1
# [22] = molecular target: Gal(b1-4)GlcNAc(b1-2)Man(a1-3)[Gal(b1-4)GlcNAc(b1-2)Man(a1-6)]Man(b1-4)GlcNAc(b1-4)GlcNAc
# How it was run: as §1
# [23] = molecular target: Gal(b1-4)GlcNAc(b1-2)Man(a1-3)[Gal(b1-4)GlcNAc(b1-2)Man(a1-6)]Man(b1-4)GlcNAc(b1-4)[Fuc(a1-6)]GlcNAc
# How it was run: as §1
# [24] = molecular target: Gal(b1-4)GlcNAc(b1-2)Man(a1-3)[Gal(b1-4)GlcNAc(b1-2)Man(a1-6)][Gal(b1-4)GlcNAc(b1-4)]Man(b1-4)GlcNAc(b1-4)[Fuc(a1-6)]GlcNAc
# How it was run: as §1
# [25] = molecular target: Gal(b1-4)GlcNAc(b1-2)Man(a1-3)[Gal(b1-4)GlcNAc(b1-2)Man(a1-6)][GlcNAc(b1-4)]Man(b1-4)GlcNAc(b1-4)[Fuc(a1-6)]GlcNAc
# How it was run: as §1
# [26] = molecular target: Gal(b1-4)GlcNAc(b1-2)Man(a1-3)[GlcNAc(b1-2)Man(a1-6)]Man(b1-4)GlcNAc(b1-4)GlcNAc
# How it was run: as §1
# [27] = molecular target: Gal(b1-4)GlcNAc(b1-2)Man(a1-3)[GlcNAc(b1-4)][Gal(b1-4)GlcNAc(b1-2)Man(a1-6)]Man(b1-4)GlcNAc(b1-4)GlcNAc
# How it was run: as §1
# [28] = molecular target: Gal(b1-4)GlcNAc(b1-2)Man(a1-3)[Man(a1-6)]Man(b1-4)GlcNAc(b1-4)GlcNAc
# How it was run: as §1
# [29] = molecular target: Gal(b1-4)GlcNAc(b1-2)Man(a1-6)Man(b1-4)GlcNAc(b1-4)GlcNAc
# How it was run: as §1
# [30] = molecular target: Gal(b1-4)GlcNAc(b1-2)Man(a1-6)[GlcNAc(b1-2)Man(a1-3)]Man(b1-4)GlcNAc(b1-4)GlcNAc
# How it was run: as §1
# [31] = molecular target: Gal(b1-4)GlcNAc(b1-2)Man(a1-6)[Man(a1-3)]Man(b1-4)GlcNAc(b1-4)GlcNAc
# How it was run: as §1
# [32] = molecular target: Gal(b1-4)GlcNAc(b1-2)[Gal(b1-4)GlcNAc(b1-4)]Man(a1-3)[Gal(b1-4)GlcNAc(b1-2)Man(a1-6)]Man(b1-4)GlcNAc(b1-4)GlcNAc
# How it was run: as §1
# [33] = molecular target: Gal(b1-4)GlcNAc(b1-2)[Gal(b1-4)GlcNAc(b1-4)]Man(a1-3)[Gal(b1-4)GlcNAc(b1-2)[Gal(b1-4)GlcNAc(b1-6)]Man(a1-6)]Man(b1-4)GlcNAc(b1-4)GlcNAc
# How it was run: as §1
# [34] = molecular target: Gal(b1-4)GlcNAc(b1-2)[Gal(b1-4)GlcNAc(b1-4)]Man(a1-3)[GlcNAc(b1-4)][Gal(b1-4)GlcNAc(b1-2)Man(a1-6)]Man(b1-4)GlcNAc(b1-4)GlcNAc
# How it was run: as §1
# [35] = molecular target: Gal(b1-4)GlcNAc(b1-2)[Gal(b1-4)GlcNAc(b1-4)]Man(a1-3)[GlcNAc(b1-4)][Gal(b1-4)GlcNAc(b1-2)[Gal(b1-4)GlcNAc(b1-6)]Man(a1-6)]Man(b1-4)GlcNAc(b1-4)GlcNAc
# How it was run: as §1
# [36] = molecular target: Gal(b1-4)GlcNAc(b1-2)[Gal(b1-4)GlcNAc(b1-6)]Man(a1-6)[Gal(b1-4)GlcNAc(b1-2)Man(a1-3)]Man(b1-4)GlcNAc(b1-4)GlcNAc
# How it was run: as §1
# [37] = molecular target: Gal(b1-4)GlcNAc(b1-2)[Gal(b1-4)GlcNAc(b1-6)]Man(a1-6)[Gal(b1-4)GlcNAc(b1-2)Man(a1-3)]Man(b1-4)GlcNAc(b1-4)[Fuc(a1-6)]GlcNAc
# How it was run: as §1
binder,measurement,setting,value
B1,glycan array binding signal (z-score),[1],0.247
same,glycan array binding signal (z-score),[2],-0.356
same,glycan array binding signal (z-score),[3],-0.144
same,glycan array binding signal (z-score),[4],-0.12
same,glycan array binding signal (z-score),[5],0.161
same,glycan array binding signal (z-score),[6],-0.288
same,glycan array binding signal (z-score),[7],-0.453
same,glycan array binding signal (z-score),[8],1.07
same,glycan array binding signal (z-score),[9],-0.318
same,glycan array binding signal (z-score),[10],-0.049
same,glycan array binding signal (z-score),[11],-0.265
same,glycan array binding signal (z-score),[12],-0.512
same,glycan array binding signal (z-score),[13],1.08
same,glycan array binding signal (z-score),[14],-0.399
same,glycan array binding signal (z-score),[15],-0.379
same,glycan array binding signal (z-score),[16],-0.482
same,glycan array binding signal (z-score),[17],-0.214
same,glycan array binding signal (z-score),[18],-0.33
same,glycan array binding signal (z-score),[19],-0.512
same,glycan array binding signal (z-score),[20],-0.265
same,glycan array binding signal (z-score),[21],-0.382
same,glycan array binding signal (z-score),[22],-0.479
same,glycan array binding signal (z-score),[23],-0.332
same,glycan array binding signal (z-score),[24],1.2
same,glycan array binding signal (z-score),[25],-0.121
same,glycan array binding signal (z-score),[26],-0.288
same,glycan array binding signal (z-score),[27],1.28
same,glycan array binding signal (z-score),[28],-0.023
same,glycan array binding signal (z-score),[29],-0.187
same,glycan array binding signal (z-score),[30],-0.416
same,glycan array binding signal (z-score),[31],5.33
same,glycan array binding signal (z-score),[32],0.486
same,glycan array binding signal (z-score),[33],-0.221
same,glycan array binding signal (z-score),[34],0.393
same,glycan array binding signal (z-score),[35],3.03
same,glycan array binding signal (z-score),[36],0.998
same,glycan array binding signal (z-score),[37],0.886
